Measurements reported in PMC3901232.
Residue numbers refer to the chain shown, from its start. These are yes or no findings as the source states them, for the method shown. Binding seen in cells or lysates may run through a third protein. Some entries that bind do so weakly or less than the wild type. Sequences can lack the tags named with a protein.

What was measured:
[1] = biological target: T1, EIICB^Glc-5His (E. coli K-12) (UniProt P69786); test: cross-linking; as a1, but JKA12 cells grown in the absence of glucose
T1 sequence: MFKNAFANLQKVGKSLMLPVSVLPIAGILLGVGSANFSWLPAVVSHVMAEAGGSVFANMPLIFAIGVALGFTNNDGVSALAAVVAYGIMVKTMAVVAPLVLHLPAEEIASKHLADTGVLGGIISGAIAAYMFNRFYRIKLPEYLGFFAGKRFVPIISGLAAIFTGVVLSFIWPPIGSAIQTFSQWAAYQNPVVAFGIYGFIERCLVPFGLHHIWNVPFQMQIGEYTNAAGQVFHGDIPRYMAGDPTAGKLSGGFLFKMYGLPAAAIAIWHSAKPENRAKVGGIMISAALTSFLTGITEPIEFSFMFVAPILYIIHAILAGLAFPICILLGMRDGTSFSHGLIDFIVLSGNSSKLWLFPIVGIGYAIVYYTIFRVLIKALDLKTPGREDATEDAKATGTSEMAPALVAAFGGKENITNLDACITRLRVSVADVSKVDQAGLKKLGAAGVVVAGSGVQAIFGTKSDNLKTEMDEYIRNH

[2] = biological target: T2, EIICB^Glc-V12F-5His (E. coli K-12) (UniProt P69786); test: cross-linking; in vivo, 0.3% paraformaldehyde for 20 min at 37 °C; PTS-positive cells (JKA12; also the dgsA deletion strain LJB17) grown with 0.2% glucose; membrane proteins solubilised with 2% Triton X-100; EIICB^Glc-His purified on Ni-NTA agarose; co-purified SgrT-3HA detected by Western blot
T2 sequence: T1 sequence with V12F

[3] = biological target: T3, EIICB^Glc-D388A-5His (E. coli K-12) (UniProt P69786); test: as above
T3 sequence: T1 sequence with D388A

binding [1]: binds weakly | binding [2]: binds | binding [3]: binds
Binder: MRQFYQHYFTATAKLCWLRWLSVPQRLTMLEGLMQWDDRNSES (peptide, UniProt C1P5Z7 1-43) [SgrT-3HA]
